# The whole screen tested about 45,000 compounds, of which about 200 (0.44%) were called active. The inconclusive results got no clear call from the source; some entries with a clear call stand among them for comparison. Calls come from the whole dose curve; as a rule, active = well fitted activation curve with a large enough effect; inconclusive = small, poorly fitted or top-dose-only effect; inactive = no such curve, though single readings can be large or run the other way. Potencies of inconclusive entries are doubtful fits and often do not repeat.
# Test: qHTS of TDP-43 Inhibitors: NCGC Sytravon Library Screen; note: nearly all actives have a fitted effect of over 55% in size; for growth rescue (activation): 0% is about no effect
# Settings: yeast TDP-43 toxicity rescue, BacTiter-Glo growth, 24 h; growth rescue (activation): at 46.1 µM (top of the series)
# In short: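 TDP-43-expressing yeast, pregrown in raffinose, seeded at OD600 0.02 in galactose medium with compound for 24 hr at 30 deg C. Growth read by BacTiter-Glo luminescence, so rescue of toxicity appears as activation.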
# Potency is the fitted concentration of half-maximal effect; tags give direction and shape of the fitted curve.
SMILES,Potency,growth rescue (activation)
COC(=O)c1cc(-c2ccc(C)o2)nc2ccccc12,"inconclusive: 11.2 µM [activator, single point]",–
COc1cc2c(cc1NC(=O)COC(=O)Cn1cnc3ccccc31)oc1ccccc12,"inconclusive: 11.2 µM [activator, partial curve, poor fit]",–
COc1ccc([N+](=O)[O-])cc1/C=N/Nc1nn[nH]n1,–,inactive: -14.2%
NC(=O)COC(=O)C1CSC2(c3ccc(F)cc3)CCC(=O)N12 (stereo not given),–,inactive: -9.58%
CC(C)CC(=O)NC(=S)Nc1ccc(Cl)cn1,"inconclusive: 8.91 µM [activator, partial curve, poor fit]",–
COc1ccc(-c2nc(CNS(=O)(=O)c3ccc(C)cc3)cs2)cc1,–,inactive: 2.55%
COc1nc(Nc2ccc([N+](=O)[O-])cc2)nc(NC2CCCCC2)n1,active: 15.8 µM,–
O=C(Nc1ccc(N2CCOCC2)cc1)c1cc2c(s1)CCCC2,"inconclusive: 11.2 µM [activator, partial curve, poor fit]",–
CCN1CCN(c2cc(C)c3cc(NC(=S)N4CC(C)CC(C)C4)ccc3n2)CC1 (stereo not given),"inconclusive: 22.4 µM [activator, partial curve, poor fit]",–
O=C(COc1ccc(F)cc1Br)N1CCN(c2ncccn2)CC1,"inconclusive: 17.8 µM [activator, single point]",–
O=C(Nc1ccccc1N1CCOCC1)c1cc(F)cc(F)c1,"inconclusive: 3.16 µM [activator, partial curve, poor fit]",–
COc1ccc(CNC(=O)c2cccc3c(-c4ccc(F)c(F)c4)coc23)cc1OC,"inconclusive: 12.6 µM [activator, single point]",–
N#C/C(C(=S)Nc1ccccc1)=C1/NN=C(N2CCOCC2)N1c1ccccc1,"inconclusive: 8.91 µM [activator, partial curve]",–
COc1ccc(CNC(=O)CCSCc2cccc(Cl)c2)cc1,"inconclusive: 15.8 µM [activator, partial curve, poor fit]",–
Cc1ccccc1OCCSc1nc(C)c(Cc2ccccc2)c(=O)[nH]1,–,inactive: 4.2%
O=C(Cc1ccc(Cl)cc1)N1CCN(c2ccc(F)cc2)CC1,"inconclusive: 11.2 µM [activator, single point]",–
Cc1cccc(C(=O)NCC(=O)OCC(=O)N2CC3(C)CC2CC(C)(C)C3)c1 (stereo not given),–,inactive: 2.65%
COc1ccc(-c2nn3c(-c4ccc(C)cc4)nnc3c3ccccc23)cc1,–,inactive: 3.13%
Cc1cc(Cl)ccc1Oc1ncnc2onc(C)c12,"inconclusive: 7.94 µM [activator, partial curve]",–
O=C(NCCC1=CCCCC1)c1ccc2c(c1)N(Cc1ccc(F)cc1)C(=O)c1ccccc1S2(=O)=O,–,inactive: 3.47%
Cc1ccc(C(=O)NC2(C(F)(F)F)NC(=O)N(c3ccc(Cl)cc3)C2=O)cc1 (stereo not given),"inconclusive: 20 µM [activator, partial curve, poor fit]",–
N#Cc1c(-c2ccccc2)cc(-c2ccccc2)nc1SCC(=O)NCC(=O)O,"inconclusive: 35.5 µM [activator, partial curve, poor fit]",–
CCOC(=O)Cc1ccc(Nc2nc(NCc3cccs3)nc3ccsc23)cc1,–,inactive: 23.4%

SMILES,Potency,growth rescue (activation)
COC(=O)c1cccc(NC(=O)c2nsc3ccccc23)c1,–,inactive: -4.2%
Cc1ccc(OCc2ccc(-c3ccccc3)cc2)c([N+](=O)[O-])n1,"inconclusive: 1 µM [activator, full curve, poor fit]",–
Cc1ccc2c(c1)NC(=O)c1cccnc1O2,"inconclusive: 11.2 µM [activator, partial curve, poor fit]",–
CNc1oc(-c2ccc(F)cc2)nc1S(=O)(=O)c1ccccc1,–,inactive: 14.8%
CC(NC(=O)COc1cccnc1[N+](=O)[O-])c1ccc(Cl)cc1 (stereo not given),–,inactive: 11.7%
Cc1ccoc1C(=O)NCCNc1ccc(Cl)cc1[N+](=O)[O-],"inconclusive: 22.4 µM [activator, partial curve, poor fit]",–
COc1ccc(OC)c(CCNC(=O)C2=C(C)C(=O)OC23CCC(C)CC3)c1 (stereo not given),–,inactive: 8.76%
Cc1nn(C)cc1/C=N/NC(=S)Nc1ccc(Cl)cc1Cl,"inconclusive: 7.08 µM [activator, full curve, poor fit]",–
O=C(NCC1CCN(C(=O)c2cccc([N+](=O)[O-])c2)CC1)c1cccc([N+](=O)[O-])c1,–,inactive: 0.0929%
COc1ccccc1OCc1nc(-c2cccc([N+](=O)[O-])c2)no1,"inconclusive: 12.6 µM [activator, partial curve]",–
CN(C)/C=C/C(=O)c1cccc(Oc2ncccn2)c1,"inconclusive: 11.2 µM [activator, single point]",–
Cc1onc(-c2ccccc2)c1C(=O)N(Cc1ccco1)Cc1cccs1,"inconclusive: 12.6 µM [activator, single point]",–
COc1ccc2cc(S(=O)(=O)N3CCCC(C)C3)ccc2c1 (stereo not given),–,inactive: 14.5%
CC(=O)c1ccc(C(=O)N2CCc3c([nH]c4ccccc34)C2c2cccc(C)n2)s1 (stereo not given),active: 12.6 µM,–
CCN(CC)C(=O)c1cccc(-c2csc(C(C)(O)c3ccc(F)c(F)c3)n2)c1 (stereo not given),–,inconclusive: 61.4% [activator]
COc1ccc2oc(C(=O)NC(C)(C)C)c(C)c2c1,"inconclusive: 20 µM [activator, partial curve, poor fit]",–
CC(C)c1ccc(CN2C(=O)c3ccccc3S2(=O)=O)cc1,"inconclusive: 12.6 µM [activator, single point]",–
C(=N\Nc1nc(-c2ccccc2)cs1)/c1ccco1,"inconclusive: 14.1 µM [activator, partial curve, poor fit]",–
COc1ccc(C(=O)N(Cc2sccc2C)C2CCS(=O)(=O)C2)cc1Cl (stereo not given),–,inactive: 9.57%
O=C(/C=C/c1ccco1)NCCc1ccc(F)cc1,"inconclusive: 10 µM [activator, partial curve, poor fit]",–
C=C(C(=O)c1ccccc1)C(CC(=O)c1ccccc1)c1ccccc1 (stereo not given),"inconclusive: 4.47 µM [activator, partial curve]",–
Cc1cc(C)c(C)c(S(=O)(=O)N2CCC(C(=O)N3CCN(c4ccc(F)cc4)CC3)CC2)c1C,"inconclusive: 20 µM [activator, single point]",–
